Experimental data published in US20240317847A1 (Bayer, published 2024).

Assays:
murine IL-11 = molecular target: T1, murine IL-11 (mouse, UniProt P47873 22-199); assay: Tri-complex ELISA, mIL-11 + mIL-11Ra-Fc + mgp130-Fc, inhibition of complex formation
T1 construct: Invigate recombinant protein; biotinylated when immobilized in the Di-complex ELISA; also called mIL11; mIL-11
T1 sequence: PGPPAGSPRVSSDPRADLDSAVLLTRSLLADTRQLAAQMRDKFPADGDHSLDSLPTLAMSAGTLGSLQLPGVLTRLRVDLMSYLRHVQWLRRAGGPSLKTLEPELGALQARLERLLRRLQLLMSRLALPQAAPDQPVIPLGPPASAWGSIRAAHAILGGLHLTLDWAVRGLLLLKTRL
Method: In a first step, 25 μl of goat anti human IgG (Sigma, #12136), diluted 1:1000 in coating buffer (Candor, #121125) was coated on the plate at 4° C. overnight. Next day, the plate was washed one time with 50 μl PBST and then blocked with 50 μl SmartBlock (Candor, #113125) for one hour at room temperature (RT). […] After three additional washes of the coated and blocked microtiter plate with PBS-T, 25 μl of each mixture were added and the assay plate was incubated for one hour at room temperature. After three additional washes, anti-mouse-gp130 biotinylated antibody (R&D, #BAF468) or anti-human gp130 biotinylated antibody (R&D, #BAF228), both 1:1000 in 10% SmartBlock PBS-T, was added and incubated for 1 hour at RT. After three additional washes, a Streptavidin-Peroxidase conjugate (Sigma, #S5512) 1:1000 in SmartBlock PBS-T was added and incubated for one hour at room temperature. After a final three washes, AmplexRed (Fisher Scientific, A12222), 1/1000 in PBS, 0,003% H₂O₂, was added as substrate and incubated for 15 min at RT in the dark. Then, the fluorescence was measured with a plate reader at 535/595 nm. Signals from dose responses were used to calculate IC50 values using GraphPad Prism software. Efficacy was calculated as [(signal measured at lowest antibody concentration−signal measured at the highest antibody concentration)×100] divided by (signal measured at lowest antibody concentration−signal measured in the absence of antibody at an IL11 concentration of 8.2E-11 [M]).
(§1) IgG converted antibodies were subjected to the experimental assay procedure described in Example 19 and IC50 [M], respectively efficacy (%) were calculated accordingly.

human IL-11 = molecular target: T2, human IL-11 (human, UniProt P20809 22-199); assay: Tri-complex ELISA, hIL-11 + mIL-11Ra-Fc + hgp130-Fc, inhibition of complex formation
T2 construct: Invigate recombinant protein; biotinylated when immobilized in the Di-complex ELISA; also called hIL11; hIL-11
T2 sequence: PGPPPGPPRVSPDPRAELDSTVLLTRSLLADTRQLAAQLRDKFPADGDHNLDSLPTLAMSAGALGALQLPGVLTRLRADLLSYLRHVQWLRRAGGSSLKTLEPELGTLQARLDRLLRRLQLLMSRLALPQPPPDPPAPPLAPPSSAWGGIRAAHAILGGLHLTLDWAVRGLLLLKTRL
Method: In the Tri-complex ELISA format IL-11 antibodies are tested for their ability to inhibit the formation of a complex consisting of murine or human gp130-Fc fusion protein, with murine or human IL-11, and a murine IL11RA-Fc fusion protein. The assay format was adapted according to FIG. 18 (a, b), depending on whether murine or human IL-11 IgG antibodies were tested.
as §1

Binder | Efficacy (%) (murine IL-11) | IC50 (murine IL-11) [nM] | Efficacy (%) (human IL-11) | IC50 (human IL-11) [nM]
TPP-30003 (antibody, human IgG1, lambda, hIgG1, Lambda (HS variant)) heavy: QVQLVESGGGVVQPGRSLRLSCAASGFTFSHYDMHWVRQAPGKGLEWVAVISYEGSVKFYADSVKGRFTISRDNSKNTLYLQMNSLRAEDTAVYYCARTPGFHFDYWGQGTLVTVSSASTKGPSVFPLAPSSKSTSGGTAALGCLVKDYFPEPVTVSWNSGALTSGVHTFPAVLQSSGLYSLSSVVTVPSSSLGTQTYICNVNHKPSNTKVDKKVEPKSCDKTHTCPPCPAPPVAGPSVFLFPPKPKDTLMISRTPEVTCVVVGVSHEDPEVKFNWYVDGVEVHNAKTKPREEQYNSTYRVVSVLTVLHQDWLNGKEYKCKVSNKQLPSPIEKTISKAKGQPREPQVYTLPPSRDELTKNQVSLTCLVKGFYPSDIAVEWESNGQPENNYKTTPPVLDSDGSFFLYSKLTVDKSRWQQGNVFSCSVMHEALHNHYTQKSLSLSPGK light: QSVLTQPPSASGTPGQRVTISCSGSSSNIGSNYVNWYQQLPGTAPKLLIYYDDLRPSGVPDRFSGSKSGTSASLAISGLRSEDEADYYCSAWDDSLSGVVFGGGTKLTVLGQPKAAPSVTLFPPSSEELQANKATLVCLISDFYPGAVTVAWKADSSPVKAGVETTTPSKQSNNKYAASSYLSLTPEQWKSHRSYSCQVTHEGSTVEKTVAPTECS | 102 | 0.1 | 85.4 | 7.4
TPP-30000 (antibody, human IgG1, lambda, hIgG1, Lambda (HS variant)) heavy: QVQLVESGGGVVQPGRSLRLSCAASGFTFSHYDMHWVRQAPGKGLEWVAVISYSGSVKFYADSVKGRFTISRDNSKNTLYLQMNSLRAEDTAVYYCARTPGSHFDYWGQGTLVTVSSASTKGPSVFPLAPSSKSTSGGTAALGCLVKDYFPEPVTVSWNSGALTSGVHTFPAVLQSSGLYSLSSVVTVPSSSLGTQTYICNVNHKPSNTKVDKKVEPKSCDKTHTCPPCPAPPVAGPSVFLFPPKPKDTLMISRTPEVTCVVVGVSHEDPEVKFNWYVDGVEVHNAKTKPREEQYNSTYRVVSVLTVLHQDWLNGKEYKCKVSNKQLPSPIEKTISKAKGQPREPQVYTLPPSRDELTKNQVSLTCLVKGFYPSDIAVEWESNGQPENNYKTTPPVLDSDGSFFLYSKLTVDKSRWQQGNVFSCSVMHEALHNHYTQKSLSLSPGK light: QSVLTQPPSASGTPGQRVTISCSGSSSNIGSNYVNWYQQLPGTAPKLLIYYDDLRPSGVPDRFSGSKSGTSASLAISGLRSEDEADYYCSAWDDSLSGVVFGGGTKLTVLGQPKAAPSVTLFPPSSEELQANKATLVCLISDFYPGAVTVAWKADSSPVKAGVETTTPSKQSNNKYAASSYLSLTPEQWKSHRSYSCQVTHEGSTVEKTVAPTECS | 98.8 | 0.12 | 86 | 5.7

Second part, the binder after the results:

Efficacy (%) (murine IL-11) | IC50 (murine IL-11) [nM] | Efficacy (%) (human IL-11) | IC50 (human IL-11) [nM] | Binder
99.7 | 0.11 | 81 | 11 | TPP-30001 (antibody, human IgG1, lambda, hIgG1, Lambda (HS variant)) heavy: QVQLVESGGGVVQPGRSLRLSCAASGFTFSHYDMHWVRQAPGKGLEWVAVISYEGSNKFYADSVKGRFTISRDNSKNTLYLQMNSLRAEDTAVYYCARTPGFHFDYWGQGTLVTVSSASTKGPSVFPLAPSSKSTSGGTAALGCLVKDYFPEPVTVSWNSGALTSGVHTFPAVLQSSGLYSLSSVVTVPSSSLGTQTYICNVNHKPSNTKVDKKVEPKSCDKTHTCPPCPAPPVAGPSVFLFPPKPKDTLMISRTPEVTCVVVGVSHEDPEVKFNWYVDGVEVHNAKTKPREEQYNSTYRVVSVLTVLHQDWLNGKEYKCKVSNKQLPSPIEKTISKAKGQPREPQVYTLPPSRDELTKNQVSLTCLVKGFYPSDIAVEWESNGQPENNYKTTPPVLDSDGSFFLYSKLTVDKSRWQQGNVFSCSVMHEALHNHYTQKSLSLSPGK light: QSVLTQPPSASGTPGQRVTISCSGSSSNIGSNYVSWYQQLPGTAPKLLIYYDDLRPSGVPDRFSGSKSGTSASLAISGLRSEDEADYYCSAWDDSLSGVVFGGGTKLTVLGQPKAAPSVTLFPPSSEELQANKATLVCLISDFYPGAVTVAWKADSSPVKAGVETTTPSKQSNNKYAASSYLSLTPEQWKSHRSYSCQVTHEGSTVEKTVAPTECS
102 | 0.073 | 86.2 | 4.9 | TPP-30002 (antibody, human IgG1, lambda, hIgG1, Lambda (HS variant)) heavy: QVQLVESGGGVVQPGRSLRLSCAASGFTFSHYDMHWVRQAPGKGLEWVAVISYEGSNKFYADSVKGRFTISRDNSKNTLYLQMNSLRAEDTAVYYCARTPGFHFDYWGQGTLVTVSSASTKGPSVFPLAPSSKSTSGGTAALGCLVKDYFPEPVTVSWNSGALTSGVHTFPAVLQSSGLYSLSSVVTVPSSSLGTQTYICNVNHKPSNTKVDKKVEPKSCDKTHTCPPCPAPPVAGPSVFLFPPKPKDTLMISRTPEVTCVVVGVSHEDPEVKFNWYVDGVEVHNAKTKPREEQYNSTYRVVSVLTVLHQDWLNGKEYKCKVSNKQLPSPIEKTISKAKGQPREPQVYTLPPSRDELTKNQVSLTCLVKGFYPSDIAVEWESNGQPENNYKTTPPVLDSDGSFFLYSKLTVDKSRWQQGNVFSCSVMHEALHNHYTQKSLSLSPGK light: QSVLTQPPSASGTPGQRVTISCSGSSSNIGSNYVNWYQQLPGTAPKLLIYYDDLRPSGVPDRFSGSKSGTSASLAISGLRSEDEADYYCSAWDDSLSGVVFGGGTKLTVLGQPKAAPSVTLFPPSSEELQANKATLVCLISDFYPGAVTVAWKADSSPVKAGVETTTPSKQSNNKYAASSYLSLTPEQWKSHRSYSCQVTHEGSTVEKTVAPTECS
